{
  "source": "PubChem BioAssay AID504333",
  "about": "(National Center for Advancing Translational Sciences (NCATS), 2011)",
  "note": "The campaign covered roughly 360,000 compounds. About 16,000 (4.4%) were called active. The inconclusive results got no clear call from the source; some entries with a clear call stand among them for comparison. Calls follow the shape of the dose curve; as a rule, active = well fitted inhibition curve with a large enough effect; inconclusive = small, poorly fitted or top-dose-only effect; inactive = no such curve, though single readings can be large or run the other way. Potencies beside an inconclusive call are fits to weak or partial responses and may not hold up. % is scaled to controls: 0 for no effect and ±100 for the full control effect; potency is read from the fitted curve at half-maximal effect; tags tell the direction and shape of the fitted curve.",
  "data": [
    {"target": "Bromodomain adjacent to zinc finger domain protein 2B (Homo sapiens) (UniProt Q9UIF8)", "sequence (Q9UIF8 whole entry, looked up, the tested form may be a part)": "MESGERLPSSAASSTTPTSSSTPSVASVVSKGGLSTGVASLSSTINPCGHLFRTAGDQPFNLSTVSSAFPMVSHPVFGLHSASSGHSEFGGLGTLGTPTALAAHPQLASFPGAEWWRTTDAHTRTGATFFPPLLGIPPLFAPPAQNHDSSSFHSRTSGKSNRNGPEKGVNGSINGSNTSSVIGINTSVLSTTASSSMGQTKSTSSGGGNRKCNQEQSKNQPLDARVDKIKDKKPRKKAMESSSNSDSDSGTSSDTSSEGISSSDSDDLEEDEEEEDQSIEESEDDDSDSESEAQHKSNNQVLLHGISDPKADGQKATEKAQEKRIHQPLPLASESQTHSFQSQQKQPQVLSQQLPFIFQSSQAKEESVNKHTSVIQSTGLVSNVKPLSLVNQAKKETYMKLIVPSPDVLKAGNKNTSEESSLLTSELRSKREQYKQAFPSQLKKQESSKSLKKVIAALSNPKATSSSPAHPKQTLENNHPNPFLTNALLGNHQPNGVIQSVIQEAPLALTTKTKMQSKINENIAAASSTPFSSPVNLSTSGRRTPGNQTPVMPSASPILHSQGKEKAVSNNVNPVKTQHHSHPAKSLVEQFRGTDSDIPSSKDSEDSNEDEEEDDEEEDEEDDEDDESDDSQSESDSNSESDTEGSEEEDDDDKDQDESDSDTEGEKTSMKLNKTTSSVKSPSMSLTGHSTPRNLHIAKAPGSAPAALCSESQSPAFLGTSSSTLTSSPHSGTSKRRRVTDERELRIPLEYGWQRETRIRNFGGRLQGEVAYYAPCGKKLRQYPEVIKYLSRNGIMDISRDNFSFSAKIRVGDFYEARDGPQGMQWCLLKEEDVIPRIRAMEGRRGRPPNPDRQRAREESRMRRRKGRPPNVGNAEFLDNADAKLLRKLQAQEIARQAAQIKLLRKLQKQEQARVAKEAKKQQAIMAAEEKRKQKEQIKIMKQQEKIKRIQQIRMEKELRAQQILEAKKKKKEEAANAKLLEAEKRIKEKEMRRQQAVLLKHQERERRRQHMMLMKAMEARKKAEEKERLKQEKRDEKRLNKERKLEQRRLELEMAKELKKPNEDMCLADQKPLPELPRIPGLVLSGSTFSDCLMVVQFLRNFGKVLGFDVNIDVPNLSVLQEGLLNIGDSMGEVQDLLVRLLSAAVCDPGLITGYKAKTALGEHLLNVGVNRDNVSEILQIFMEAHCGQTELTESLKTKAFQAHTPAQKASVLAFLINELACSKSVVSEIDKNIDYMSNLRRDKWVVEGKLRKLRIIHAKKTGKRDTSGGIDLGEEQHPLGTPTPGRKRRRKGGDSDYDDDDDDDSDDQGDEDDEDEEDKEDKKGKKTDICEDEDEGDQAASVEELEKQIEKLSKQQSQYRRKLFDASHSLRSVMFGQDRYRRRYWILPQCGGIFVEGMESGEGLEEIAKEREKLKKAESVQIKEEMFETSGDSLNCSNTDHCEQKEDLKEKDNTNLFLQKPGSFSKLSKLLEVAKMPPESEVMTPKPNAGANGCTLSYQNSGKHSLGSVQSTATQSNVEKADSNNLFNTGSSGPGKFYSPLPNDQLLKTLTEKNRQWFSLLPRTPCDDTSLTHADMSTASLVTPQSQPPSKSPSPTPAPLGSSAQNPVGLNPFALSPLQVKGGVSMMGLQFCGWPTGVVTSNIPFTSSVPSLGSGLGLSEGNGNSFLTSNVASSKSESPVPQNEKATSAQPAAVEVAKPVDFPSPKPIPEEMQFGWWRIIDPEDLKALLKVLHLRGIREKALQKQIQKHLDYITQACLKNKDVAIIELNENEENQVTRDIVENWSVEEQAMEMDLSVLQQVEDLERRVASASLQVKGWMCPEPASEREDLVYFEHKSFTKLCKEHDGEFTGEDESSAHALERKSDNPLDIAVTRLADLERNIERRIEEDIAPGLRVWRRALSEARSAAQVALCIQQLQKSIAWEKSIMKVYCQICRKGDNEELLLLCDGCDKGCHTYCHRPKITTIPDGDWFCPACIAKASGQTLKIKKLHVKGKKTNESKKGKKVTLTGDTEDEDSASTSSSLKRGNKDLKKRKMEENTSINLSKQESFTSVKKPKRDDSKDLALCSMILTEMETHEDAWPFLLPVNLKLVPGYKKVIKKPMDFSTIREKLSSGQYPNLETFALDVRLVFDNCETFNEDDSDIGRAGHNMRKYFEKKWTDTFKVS", "assay": "qHTS Assay for Inhibitors of BAZ2B; also: nearly all actives have a fitted effect of over 60% in size", "conditions": "AlphaScreen BAZ2B-H3K14Ac peptide displacement; activity change, negative = inhibition: at 114 µM (top of the series) unless noted", "in_short": "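Complex of BAZ2B and biotin-H3K14Ac (50 nM apiece) forms over 30 min at RT, then faces library compounds up to 110 uM for another 30 min; AlphaScreen beads added, 20 min dark incubation, luminescence read.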", "values": [
      {"smiles": "Oc1ccccc1/C=N/NC(=S)NCCc1ccccc1", "Potency": "inconclusive: 22.4 µM [inhibitor, full curve]"},
      {"smiles": "CCN(CCCNC(=O)c1cn(CC)c2ccc(S(=O)(=O)N(C)C)cc2c1=O)c1cccc(C)c1", "Potency": "inconclusive: 39.8 µM [inhibitor, partial curve]"},
      {"smiles": "CCCc1cc(=S)n2c([nH]c3ccccc32)c1C#N", "Potency": "inconclusive: 50.1 µM [inhibitor, partial curve]"},
      {"smiles": "NS(=O)(=O)c1ccc(N=Nc2c(O)c(C(=O)O)cc3ccccc23)cc1", "Potency": "active: 39.8 µM"},
      {"smiles": "COc1ccc(-c2csc(=Nc3ccccc3)n2CCO)cc1", "Potency": "active: 12.6 µM"},
      {"smiles": "O=C(CNC(=O)c1cccc(Br)c1)N/N=C/c1cccs1", "Potency": "inconclusive: 89.1 µM [inhibitor, single point]"},
      {"smiles": "COc1cc(/C=C/C(=O)O)ccc1OS(=O)(=O)c1c(C)cc(C)cc1C", "activity change, negative = inhibition": "inactive: -21.4%"},
      {"smiles": "O=C(NCC(c1ccco1)N1CCN(c2ccc(F)cc2)CC1)c1cccs1", "note": "(configuration not stated)", "Potency": "inconclusive: 100 µM [inhibitor, single point]"},
      {"smiles": "CCOc1cccc(C(=O)Nc2ccc(N(CC)CC)cc2)c1", "Potency": "active: 39.8 µM"},
      {"smiles": "CCc1nnc(NC(=O)C2CC(=O)N(c3ccc(C)cc3)C2)s1", "note": "(configuration not stated)", "activity change, negative = inhibition": "inactive: -31.1%"},
      {"smiles": "Cc1cc(NC(=O)CSc2ccc(-c3ccc(Br)cc3)nn2)no1", "activity change, negative = inhibition": "inactive: -12.1%"},
      {"smiles": "Cc1ccc2nc(SCC(=O)N3c4ccccc4CC3C)c(C)cc2c1", "note": "(configuration not stated)", "Potency": "inconclusive: 6.31 µM [inhibitor, single point]"},
      {"smiles": "COc1ccc(OC)c(/C(O)=C/C(=O)C(=O)Nc2cc(C)ccc2OC)c1", "Potency": "inconclusive: 89.1 µM [inhibitor, single point]"},
      {"smiles": "CS/C(=C/[N+](=O)[O-])Nc1cccc2c1C(C)CC2(C)C", "note": "(configuration not stated)", "Potency": "inconclusive: 39.8 µM [inhibitor, partial curve]"},
      {"smiles": "CC(C(=O)NCc1cccc(Br)c1)n1ncn2cccc2c1=O", "note": "(configuration not stated)", "Potency": "inconclusive: 56.2 µM [inhibitor, single point]"},
      {"smiles": "Fc1ccc(N2CCN(Cc3c[nH]c4ccccc34)CC2)cc1", "Potency": "inconclusive: 79.4 µM [inhibitor, partial curve]"},
      {"smiles": "CC(=O)c1cccc(CN2CCC(C(=O)Nc3ccc(-c4cccc(C)c4)cc3)CC2)c1", "Potency": "inconclusive: 89.1 µM [inhibitor, single point]"},
      {"smiles": "S=C(NCc1ccco1)N1CCOCC1", "activity change, negative = inhibition": "inactive: -18.1%"},
      {"smiles": "COc1cc2cc(C(=O)Nc3ccc4c(c3)OCCO4)[nH]c2cc1OC", "Potency": "inconclusive: 89.1 µM [inhibitor, single point]"},
      {"smiles": "Cc1ccccc1OCC(=O)Nc1ccc(N2CCN(C(=O)c3ccco3)CC2)cc1", "Potency": "inconclusive: 70.8 µM [inhibitor, single point]"},
      {"smiles": "CC(C)(C)C1CCC(OC(=O)CN2CCCCC2)CC1", "note": "(configuration not stated)", "activity change, negative = inhibition": "inactive: -4.54%"},
      {"smiles": "CC(=O)N1CCN(c2ccc(NC(=O)c3cccc(OCc4ccccc4)c3)cc2)CC1", "Potency": "inconclusive: 31.6 µM [inhibitor, partial curve, poor fit]"},
      {"smiles": "COCCNC(=S)N1CCN(c2nc(-c3ccccc3)cs2)CC1", "Potency": "inconclusive: 44.7 µM [inhibitor, partial curve]"},
      {"smiles": "Cc1ccc(S(=O)(=O)N2CCN(c3cc4c(cc3[N+](=O)[O-])n(C)c(=O)n4C)CC2)cc1", "Potency": "inconclusive: 79.4 µM [inhibitor, single point]"},
      {"smiles": "Cc1cccc(-c2noc(CCc3ccccc3)n2)c1", "activity change, negative = inhibition": "inactive: 14.5%"},
      {"smiles": "O=c1[nH]c(CN2CCCC2)nc2sc3c(c12)CCC3", "Potency": "inconclusive: 79.4 µM [inhibitor, single point]"},
      {"smiles": "O=C(CSC1=NS(=O)(=O)c2ccccc21)Nc1ccccc1", "Potency": "inconclusive: 100 µM [inhibitor, single point]"},
      {"smiles": "CCOc1ccc(NC(=O)Cn2sc3nc(C)cc(C)c3c2=O)cc1", "activity change, negative = inhibition": "inactive: -37%"},
      {"smiles": "O=[N+]([O-])C(=C1NCCN1)C(Cl)=C(Cl)Cl", "activity change, negative = inhibition": "inactive: -11.3%"},
      {"smiles": "C=CCn1c(SCC(=O)NNC(=S)Nc2ccccc2)nnc1-c1ccccc1", "activity change, negative = inhibition": "inactive: 4.08%"},
      {"smiles": "CCN(CC)S(=O)(=O)c1ccc(NN=C2CCN(C(C)C)CC2)c([N+](=O)[O-])c1", "Potency": "inconclusive: 44.7 µM [inhibitor, partial curve]"},
      {"smiles": "CCCCC(=O)OCC(=O)c1[nH]c(C)c(C(C)=O)c1C", "Potency": "inconclusive: 89.1 µM [inhibitor, single point]"},
      {"smiles": "O=C1CC(=O)c2c1cccc2[N+](=O)[O-]", "Potency": "active: 50.1 µM"},
      {"smiles": "Cc1ccc(C)c(OCC(=O)Nc2nonc2NC(=O)COc2cc(C)ccc2C)c1", "Potency": "inconclusive: 89.1 µM [inhibitor, single point]"},
      {"smiles": "O=C(Nc1cccnc1Cl)c1cc(-c2ccc(O)cc2)on1", "Potency": "inconclusive: 89.1 µM [inhibitor, single point]"},
      {"smiles": "COC(=O)c1ccc(NC(CC(C)C)C(=O)OC)c([N+](=O)[O-])c1", "note": "(configuration not stated)", "Potency": "inconclusive: 39.8 µM [inhibitor, full curve, poor fit]"},
      {"smiles": "O=S(=O)(c1ccccc1)c1nc(-c2cccs2)oc1N1CCCCC1", "Potency": "active: 35.5 µM"},
      {"smiles": "O=C(O)/C=C/C(=O)Nc1ccc(Cl)c(C(=O)O)c1", "Potency": "inconclusive: 89.1 µM [inhibitor, single point]"},
      {"smiles": "Cc1ccc2c(c1)C(O)(CC(=O)/C=C/C=C/c1ccccc1)C(=O)N2", "note": "(configuration not stated)", "Potency": "inconclusive: 89.1 µM [inhibitor, single point]"},
      {"smiles": "CCOc1cccc(OCCOCCN(C)C)c1", "Potency": "inconclusive: 100 µM [inhibitor, single point]"},
      {"smiles": "Cc1cccc(OCCCSc2nc(-c3ccc(C(C)(C)C)cc3)nc3cc(=O)[nH]n23)c1C", "Potency": "active: 56.2 µM"},
      {"smiles": "CC(C)Cn1c(=O)c2c(nc3n2CC(C)CN3Cc2ccccc2)n(C)c1=O", "note": "(configuration not stated)", "Potency": "inconclusive: 50.1 µM [inhibitor, partial curve]"},
      {"smiles": "O=C(c1cccc(Cl)c1)N(Cc1ccco1)C1CCS(=O)(=O)C1", "note": "(configuration not stated)", "activity change, negative = inhibition": "inactive: 7.25%"},
      {"smiles": "Cn1c(CO)c(-c2ccccc2)c2cc([N+](=O)[O-])ccc21", "activity change, negative = inhibition": "inactive: -4.57%"},
      {"smiles": "O=C(c1ccc(CS(=O)c2ccccc2Cl)o1)N1CCN(c2cccc(C(F)(F)F)c2)CC1", "note": "(configuration not stated)", "Potency": "inconclusive: 44.7 µM [inhibitor, partial curve]"},
      {"smiles": "Cc1cc(C(=O)COC(=O)Cc2n[nH]c(=O)c3ccccc23)c(C)n1-c1ccc2c(c1)OCO2", "Potency": "inconclusive: 44.7 µM [inhibitor, partial curve]"},
      {"smiles": "CCCC[C@@H]1CNCCN1CCc1cccc2ccccc12", "Potency": "inconclusive: 100 µM [inhibitor, single point]"},
      {"smiles": "O=C(c1ccc(F)cc1)N1CCC(N2CCOCC2)CC1", "Potency": "inconclusive: 89.1 µM [inhibitor, single point]"},
      {"smiles": "CN(C)c1cccc(C(=O)NNC(=S)NC2CC3CCC2C3)c1", "note": "(configuration not stated)", "activity change, negative = inhibition": "inactive: -25.6%"},
      {"smiles": "COc1cc(C(=O)NCC(c2cccs2)N2CCc3ccccc32)cc(OC)c1OC", "note": "(configuration not stated)", "activity change, negative = inhibition": "inactive: 7.91%"},
      {"smiles": "CCOc1ccc(NC(=O)C2CCN(S(=O)(=O)c3ccc4c(c3)oc(=O)n4C)CC2)cc1", "activity change, negative = inhibition": "inactive: -19.6%"},
      {"smiles": "CNc1sc(C(=O)c2ccc(F)cc2)c(N)c1-c1nc2ccccc2s1", "Potency": "active: 50.1 µM"},
      {"smiles": "Cn1c(C(=O)N2CCC(C(N)=O)CC2)cc2cc(Cl)ccc21", "activity change, negative = inhibition": "inactive: -4.75%"},
      {"smiles": "COc1ccc2c3c(c(=O)oc2c1)C1O[C@](c2ccsc2)(Cc2ccccc21)O3", "Potency": "inconclusive: 14.1 µM [inhibitor, single point]"},
      {"smiles": "CCc1nnc(NS(=O)(=O)c2ccc(N=Cc3c(C)[nH]n(-c4ccc(C)cc4)c3=O)cc2)s1", "Potency": "inconclusive: 79.4 µM [inhibitor, single point]"},
      {"smiles": "O=C(CSc1nnc(-c2ccncc2)n1-c1ccccc1)Nc1ccc(Br)cc1", "activity change, negative = inhibition": "inactive: 3.02%"},
      {"smiles": "CCOC(=O)c1[nH]c2ccccc2c1NC(=O)CN(C)C", "activity change, negative = inhibition": "inactive: -29.1%"},
      {"smiles": "CCCOc1ccc(/C(O)=C2\\C(=O)C(=O)N(CCCN(C)C)C23C(=O)N(C)c2ccccc23)cc1", "note": "(configuration not stated)", "activity change, negative = inhibition": "inactive: -37.6%"},
      {"smiles": "Cc1cc(C(=O)COC(=O)CNS(=O)(=O)c2ccc3ccccc3c2)c(C)n1-c1ccccc1", "Potency": "inconclusive: 79.4 µM [inhibitor, single point]"},
      {"smiles": "COc1ccc(OC)c(NC(=O)CCn2cccc2)c1", "Potency": "active: 50.1 µM"},
      {"smiles": "C/C=C/c1ccc(OCCCCN2CCN(CC)CC2)c(OC)c1", "Potency": "active: 25.1 µM"},
      {"smiles": "Cc1ccccc1OCC(=O)NNC(=S)NC(=O)c1ccccc1[N+](=O)[O-]", "activity change, negative = inhibition": "inactive: 1.26%"},
      {"smiles": "C/C=C/c1ccc(OCC(O)CNCC(c2ccc(OC)cc2)N(C)C)c(OC)c1", "note": "(configuration not stated)", "Potency": "active: 17.8 µM"},
      {"smiles": "C#CCOCCOCCOCCNc1nc(N2CCN(C(=O)[C@H](Cc3cc4ccccc4[nH]3)n3cc([C@@H](N)C(C)CC)nn3)CC2)nc(N2CCN(C(=O)[C@H](Cc3cc4ccccc4[nH]3)n3cc([C@@H](N)Cc4ccc(O)cc4)nn3)CC2)n1", "note": "(some centres not stated)", "Potency": "active: 11.2 µM"},
      {"smiles": "Cc1ccc2cc(C(c3nnnn3C(C)(C)C)N3CCCC3)c(=O)[nH]c2c1C", "note": "(configuration not stated)", "activity change, negative = inhibition": "inactive: -29.4%"},
      {"smiles": "COc1ccc(S(=O)(=O)N2CCCC2C(=O)Nc2nc3c(s2)CCCC3)cc1", "note": "(configuration not stated)", "Potency": "inconclusive: 89.1 µM [inhibitor, single point]"},
      {"smiles": "Cc1ccc(-c2csc(=Nc3cccnc3)n2CCCN2CCCC2=O)cc1C", "Potency": "inconclusive: 79.4 µM [inhibitor, single point]"},
      {"smiles": "CCCc1nnc(NC(=O)CSc2nc3ccccc3[nH]2)s1", "Potency": "inconclusive: 89.1 µM [inhibitor, single point]"},
      {"smiles": "O=C(O)c1ccc(NC(CSCc2ccc(F)cc2)C(=O)O)c([N+](=O)[O-])c1", "note": "(configuration not stated)", "Potency": "inconclusive: 89.1 µM [inhibitor, single point]"},
      {"smiles": "COc1ccc(N2CCN(CC(=O)Nc3ccc(C)cc3)CC2)cc1", "Potency": "inconclusive: 79.4 µM [inhibitor, single point]"},
      {"smiles": "Cc1ccc(CSC2=Nc3ccccc3C3=NC(CC(=O)NCc4ccco4)C(=O)N23)cc1", "note": "(configuration not stated)", "Potency": "active: 50.1 µM"},
      {"smiles": "COc1cccc(/C=N/NC(=O)CSc2nnc(C)n2-c2ccccc2)c1O", "Potency": "inconclusive: 89.1 µM [inhibitor, single point]"}
    ]}
  ]
}
